The results in this text go back to the antibiotic and cytotoxicity screens of Wong et al. (2023).

Molecules are shown by their SMILES. The list shows a part of the results.

Assay [1] concerns HSkMC (human skeletal muscle cells). As to the kind of experiment: cytotoxicity call (relative viability < 0.9). Conditions: 10 µM.
Assay [2] concerns HepG2. As to the kind of experiment: cytotoxicity call (relative viability < 0.9). Conditions: 10 µM.
The subject of assay [3] is S. aureus RN4220. As to the kind of experiment: growth inhibition call (relative growth <= 0.2). Conditions: 50 µM.

As for `COc1ccc(NC(=O)N(C)C[C@@H]2OCCCC[C@@H](C)Oc3ccc(NC(=O)Nc4ccc(F)cc4)cc3C(=O)N([C@H](C)CO)C[C@@H]2C)cc1`, the cytotoxicity call in assay [1] and in assay [2] was “inactive” in each case. Moreover, the growth inhibition call in assay [3] is “inactive”.
As to `C[C@H]1CCCCO[C@H](CN(C)Cc2ccncc2)[C@@H](C)CN([C@@H](C)CO)C(=O)c2cc(NS(C)(=O)=O)ccc2O1`, the cytotoxicity call in assay [1] and in assay [2] was “inactive” each time. For the same compound, in assay [3], the growth inhibition call was “inactive”.
Regarding `C[C@H]1CN([C@@H](C)CO)C(=O)Cc2cc(NS(=O)(=O)c3ccccc3)ccc2O[C@@H]1CN(C)S(C)(=O)=O`, the cytotoxicity call in assay [1] and in assay [2] was “inactive” each time. For the same compound, the growth inhibition call in assay [3] was “inactive”.
As for `COc1ccccc1-c1ccc2c(c1)O[C@@H](CN(C)S(=O)(=O)c1ccccc1)[C@H](C)CN([C@H](C)CO)S2(=O)=O`, the cytotoxicity call in assay [1] and in assay [2] was “inactive” throughout. Further, in assay [3], the growth inhibition call is “inactive”.
Consider `COc1ccc(CN(C)C[C@H]2OCCCC[C@H](C)Oc3ccc(NC(=O)NC(C)C)cc3C(=O)N([C@H](C)CO)C[C@H]2C)cc1`, for which the cytotoxicity call in assay [1] and in assay [2] was “inactive” each time. For the same compound, in assay [3], the growth inhibition call was “inactive”.
Take `C[C@@H]1CCCCO[C@@H](CN(C)Cc2ccc(Cl)c(Cl)c2)[C@H](C)CN([C@@H](C)CO)C(=O)c2cc(NC(=O)C3CCCCC3)ccc2O1`: the cytotoxicity call in assay [1] and in assay [2] was “inactive” throughout. Also, the growth inhibition call in assay [3] is “inactive”.
For `C[C@H](CO)N1C[C@H](C)[C@@H](CN(C)Cc2ccc(C(F)(F)F)cc2)Oc2c(NS(C)(=O)=O)cccc2C1=O`, the cytotoxicity call in assay [1] and in assay [2] was “inactive” throughout. In addition, the growth inhibition call in assay [3] was “inactive”.
Regarding `CC(C)N[C@H]1CCS(=O)(=O)C1`, the cytotoxicity call in assay [1] and in assay [2] was “inactive” each time. Besides, the growth inhibition call in assay [3] was “inactive”.
As to `C[C@H]1CCN=C(N)S1`, the cytotoxicity call in assay [1] and in assay [2] was “inactive” in each case. In addition, the growth inhibition call in assay [3] was “inactive”.
With `C[C@@H]1CN([C@H](C)CO)C(=O)c2cc(NC(=O)Nc3ccccc3)ccc2O[C@@H](C)CCCCO[C@@H]1CN(C)C(=O)C1CCCCC1`, the cytotoxicity call in assay [1] and in assay [2] was “inactive” in each case. Moreover, the growth inhibition call in assay [3] is “inactive”.
In the case of `Cc1noc(C)c1NC(=O)Nc1ccc2c(c1)CC(=O)N([C@@H](C)CO)C[C@@H](C)[C@@H](CN(C)S(=O)(=O)c1ccccc1)O2`, the cytotoxicity call in assay [1] and in assay [2] was “inactive” each time. In addition, the growth inhibition call in assay [3] was “inactive”.
`Cc1ccc2c(Br)cc(Br)c(OC(=O)c3ccccc3)c2n1`: the cytotoxicity call in assay [1] was “inactive”. Further, in assay [2], the cytotoxicity call was “active”. For the same compound, the growth inhibition call in assay [3] is “inactive”.
For `C[C@H](CO)N1C[C@H](C)[C@H](CN(C)S(C)(=O)=O)Oc2ccc(NC(=O)NC3CCCCC3)cc2CC1=O`, the cytotoxicity call in assay [1] and in assay [2] was “inactive” throughout. Moreover, the growth inhibition call in assay [3] is “inactive”.
With `CN1C(=O)Cc2cc(NS(C)(=O)=O)ccc21`, the cytotoxicity call in assay [1] and in assay [2] was “inactive” in each case. Also, the growth inhibition call in assay [3] was “inactive”.
Regarding `CC1(CO)COC1`, the cytotoxicity call in assay [1] and in assay [2] was “inactive” each time. Moreover, the growth inhibition call in assay [3] is “inactive”.
In the case of `COc1ccc(CN(C)C[C@@H]2Oc3c(NC(=O)C4CCOCC4)cccc3C(=O)N([C@H](C)CO)C[C@H]2C)cc1`, the cytotoxicity call in assay [1] and in assay [2] was “inactive” in each case. The growth inhibition call in assay [3] was “inactive”.
With `COc1cc(Nc2ncc3c(n2)-c2ccc(Cl)cc2C(c2c(F)cccc2OC)=NC3)ccc1C(=O)O`, the cytotoxicity call in assay [1] and in assay [2] was “active” in each case. Besides, the growth inhibition call in assay [3] is “inactive”.
`CN(C)CC#Cc1ccc([C@H]2[C@@H](CO)N3C(=O)CN(C(=O)c4cccnc4)C[C@@H]23)cc1`: the cytotoxicity call in assay [1] and in assay [2] was “inactive” throughout. For the same compound, in assay [3], the growth inhibition call is “inactive”.
Consider `C[C@H]1CN([C@@H](C)CO)C(=O)Cc2cc(NC(=O)Nc3ccccc3)ccc2O[C@H]1CN(C)Cc1ccc(C(=O)Nc2ccccc2N)cc1`, for which the cytotoxicity call in assay [1] and in assay [2] was “inactive” in each case. Further, the growth inhibition call in assay [3] is “inactive”.
On to `O=C1C(=O)N(C[C@@H](O)COc2cccc3ccccc23)C(=O)C(=O)N1C[C@@H](O)COc1cccc2ccccc12`, for which the cytotoxicity call in assay [1] and in assay [2] was “inactive” throughout. Besides, the growth inhibition call in assay [3] was “inactive”.
Regarding `O=S(=O)(N1CCOCC1)N1CCCN(S(=O)(=O)N2CCOCC2)CC1`, the cytotoxicity call in assay [1] and in assay [2] was “inactive” throughout. Besides, the growth inhibition call in assay [3] is “inactive”.
As to `COc1ccc(-c2cnc3c(c2)C(=O)N([C@H](C)CO)C[C@@H](C)[C@H](CN(C)C(=O)C2CCOCC2)O3)cc1`, the cytotoxicity call in assay [1] and in assay [2] was “inactive” throughout. For the same compound, the growth inhibition call in assay [3] is “inactive”.
As for `CC1CC2C3CC(F)C4=CC(=O)C=CC4(C)C3(F)C(O)CC2(C)C1(O)C(=O)COC(=O)C(C)(C)C` (centres undefined), the cytotoxicity call in assay [1] and in assay [2] was “inactive” in each case. In addition, in assay [3], the growth inhibition call is “inactive”.
Turning to `COc1ccc([Si](C)(C)[C@@H]2[C@@H](CCO)O[C@]3(C(=O)N(Cc4cccc(N5C(=O)c6ccccc6Oc6ccccc65)c4)c4ccccc43)[C@H]2C)cc1`, in assay [1], the cytotoxicity call is “inactive”. Also, the cytotoxicity call in assay [2] is “active”. Moreover, in assay [3], the growth inhibition call is “inactive”.
As for `O=C(C[C@H]1CC[C@H]2[C@@H](COC[C@@H](O)CN2C(=O)c2ccccc2F)O1)N1CCN(c2ccccc2)CC1`, the cytotoxicity call in assay [1] and in assay [2] was “inactive” each time. For the same compound, the growth inhibition call in assay [3] was “inactive”.
With `C[C@@H]1CN([C@H](C)CO)C(=O)c2cc(NS(=O)(=O)c3cn(C)cn3)ccc2O[C@H]1CN(C)Cc1ccccc1`, the cytotoxicity call in assay [1] and in assay [2] was “inactive” each time. Also, in assay [3], the growth inhibition call was “inactive”.
For `C[C@@]1(N)CCCC[C@@H]1C(=O)O`, the cytotoxicity call in assay [1] and in assay [2] was “inactive” throughout. Moreover, the growth inhibition call in assay [3] is “inactive”.
`Cc1noc(C)c1S(=O)(=O)N(C)C[C@H]1Oc2ccc(NC(=O)NC3CCCCC3)cc2C(=O)N([C@H](C)CO)C[C@H]1C`: the cytotoxicity call in assay [1] and in assay [2] was “inactive” in each case. Also, in assay [3], the growth inhibition call was “inactive”.
